From patent US12152060B2, “Interleukin-2 variants and methods of uses thereof” (Cugene Inc, priority 2018, dated 2024)
Entries after “also recorded” stand apart in the source; their conditions may differ.

Test system: STAT5 phosphorylation in CD4+ Treg cells (CD4+/Foxp3+/CD25high)
Assay: STAT5 phosphorylation in CD4+ Treg cells, human PBMC assay by FACS
Type: cell-based
Description: Single amino acid substitutions were introduced to IL-2 at positions corresponding to amino acids interacting with receptor subunit(s) β or γ or By. These substitutions were aimed to reduce IL-2 signaling capacity through the intermediate affinity IL-2Rβγ complex and confer signaling specificity from the high affinity IL-2Rαβγ. IL-2 variants containing single amino acid substitutions were examined for their ability to differentially stimulate STAT5 phosphorylation in CD4 positive Treg and Tconv cells. STAT5 is known to be involved in the downstream signaling cascade upon IL-2 binding to the transmembrane IL-2 receptors. The phosphorylation of STAT5 in defined lymphocyte subpopulations was measured using fresh human peripheral blood mononuclear cells (PBMC) and the forkhead transcription factor FOXP3 was used to identify the Treg population in FACS analysis.
Briefly, human PBMC were isolated by Ficoll-Hypaque centrifugation from the buffy coat of a healthy donor. PBMC were starved in serum-free MACS buffer at 4° C. for 1 hour. 2×10^5 PBMC were then treated with serial dilutions of test compounds for 30 min at 37° C. […] Cells were collected by centrifugation, washed, resuspended in FACS buffer, and analyzed by flow cytometry. […] Data are expressed as a percent of pStat5 positive cells in gated population.

B1: P-0419: Fc fusion protein of IL-2 variant L19Y/Q126E; SEQ ID NO: 103 (protein)
chain: [human IgG1 Fc with L234A L235A G237A (EU numbers) cut from this listing]GGGSGGGSAPTSSSTKKTQLQLEHLLYDLQMILNGINNYKNPKLTRMLTFKFYMPKKATELKHLQCLEEELKPLEEVLNLAQSKNFHLRPRDLISNINVIVLELKGSETTFMCEYADETATIVEFLNRWITFSESIISTLT
modifications: Fc fusion; P-0419
pSTAT5 activity profile compared with benchmark molecules (in words) (Treg and CD4+ Tconv cells): very comparable to that of the Benchmark-1 molecule; also recorded: comparable activity profile to Benchmark-1 | window for selective activation of Treg cells over CD4+ Tconv cells (in words) (pSTAT5, Treg versus Tconv): significantly widened
